{"source": "the supplement of paper PMC3334620", "note": "Whole data set: some 33,000 sequences, median “E-score (-0.5 to 0.5)” near -0.017, cut for the highest 2% near 0.3. The list shows a part of the results."}
{"target": "T1, Sut1 (UniProt P53032)", "T1 sequence": "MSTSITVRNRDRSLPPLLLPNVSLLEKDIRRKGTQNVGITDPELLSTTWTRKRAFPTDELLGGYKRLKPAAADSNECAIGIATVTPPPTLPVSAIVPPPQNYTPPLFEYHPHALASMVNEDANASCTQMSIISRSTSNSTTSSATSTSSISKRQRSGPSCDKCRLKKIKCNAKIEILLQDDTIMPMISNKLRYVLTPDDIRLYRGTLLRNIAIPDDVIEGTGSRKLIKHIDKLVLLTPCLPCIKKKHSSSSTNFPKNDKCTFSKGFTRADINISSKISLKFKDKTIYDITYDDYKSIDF", "assay": "PBM E-score (8-mer binding enrichment) (E-score (-0.5 to 0.5)); higher = stronger / more preferred TF binding; most listed sequences are background and not binding sites", "details": "protein concentration: 200 nM; construct: GST-full length", "in_short": "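For each ungapped eight-base word taken together with its reverse complement, the Universal PBM Analysis Suite assigned an E-score. Binding data came from GST-tagged yeast transcription factors, applied at about 100-200 nM, on universal all-10-mer Agilent arrays made double-stranded by primer extension. Fluorescent anti-GST marked bound protein, and scans were normalised with masliner.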"}
{"sequence": "CTCCTGGC", "PBM E-score": -0.147}
{"sequence": "AGTAAGAT", "PBM E-score": 0.0546}
{"sequence": "GACTGGAA", "PBM E-score": 0.00283}
{"sequence": "CGGAGAAG", "PBM E-score": 0.36}
{"sequence": "CTTACGGA", "PBM E-score": 0.187}
{"sequence": "CCCACAAA", "PBM E-score": 0.105}
{"sequence": "AAATAGTG", "PBM E-score": 0.22}
{"sequence": "CATCAAAC", "PBM E-score": 0.117}
{"sequence": "GGGTTGGA", "PBM E-score": -0.00878}
{"sequence": "CAGTGGGA", "PBM E-score": -0.235}
{"sequence": "CCAGTCGA", "PBM E-score": -0.113}
{"sequence": "AATCGGAT", "PBM E-score": 0.183}
{"sequence": "AGTCTTCG", "PBM E-score": 0.0103}
{"sequence": "GGGAACGA", "PBM E-score": -0.123}
{"sequence": "ACAGACCT", "PBM E-score": -0.056}
{"sequence": "GATCTACA", "PBM E-score": 0.0127}
{"sequence": "CAAAGGTC", "PBM E-score": -0.194}
{"sequence": "AAAATTCA", "PBM E-score": 0.246}
{"sequence": "ACGGTTGA", "PBM E-score": -0.0185}
{"sequence": "AGTACCCG", "PBM E-score": -0.0492}
{"sequence": "TCTACCAA", "PBM E-score": 0.0475}
{"sequence": "ACCCTGGA", "PBM E-score": -0.343}
{"sequence": "AGGGCAGA", "PBM E-score": -0.348}
{"sequence": "ATCGAGCG", "PBM E-score": -0.103}
{"sequence": "CCCTGTCA", "PBM E-score": -0.272}
{"sequence": "AATGCAAT", "PBM E-score": -0.0202}
{"sequence": "CGAACCAG", "PBM E-score": 0.00064}
{"sequence": "GGTTGTTA", "PBM E-score": 0.0738}
{"sequence": "TAAGTATA", "PBM E-score": 0.294}
{"sequence": "GCGAGTAA", "PBM E-score": 0.14}
{"sequence": "ATCACCGA", "PBM E-score": 0.0738}
{"sequence": "TCCCCAGA", "PBM E-score": -0.257}
{"sequence": "ATAGACCA", "PBM E-score": -0.0792}
{"sequence": "CATTGCGC", "PBM E-score": -0.0585}
{"sequence": "AATTCCCT", "PBM E-score": -0.0468}
{"sequence": "GGCACCAC", "PBM E-score": -0.204}
{"sequence": "AACTGTGC", "PBM E-score": -0.138}
{"sequence": "CAAGCTCC", "PBM E-score": -0.0454}
{"sequence": "CACTAGTC", "PBM E-score": -0.101}
{"sequence": "TCAGAACA", "PBM E-score": 0.0225}
{"sequence": "GCTGTCAA", "PBM E-score": -0.127}
{"sequence": "AAGGAAGG", "PBM E-score": -0.112}
{"sequence": "GTGCACTA", "PBM E-score": -0.0693}
{"sequence": "CGGTAAGA", "PBM E-score": -0.0105}
{"sequence": "AAGTGAGT", "PBM E-score": -0.105}
{"sequence": "ACCAGTGC", "PBM E-score": -0.226}
{"sequence": "CCCACGGG", "PBM E-score": -0.285}
{"sequence": "AGTAATAC", "PBM E-score": 0.133}
{"sequence": "GGCGCAAC", "PBM E-score": -0.0341}
{"sequence": "AGTGAATA", "PBM E-score": 0.177}
{"sequence": "ACCTCTAG", "PBM E-score": -0.0682}
{"sequence": "AAAGTAAC", "PBM E-score": 0.198}
{"sequence": "ACGCCCAA", "PBM E-score": -0.0293}
{"sequence": "CGGCTGGA", "PBM E-score": -0.177}
{"sequence": "ATATTGCC", "PBM E-score": -0.0405}
{"sequence": "AACACACC", "PBM E-score": 0.0401}
{"sequence": "AGTACATC", "PBM E-score": 0.0401}
{"sequence": "ACAAAGTA", "PBM E-score": 0.0818}
{"sequence": "CGACAGTA", "PBM E-score": -0.00381}
{"sequence": "AGGCGCCC", "PBM E-score": -0.224}
{"sequence": "CCAGTTGC", "PBM E-score": -0.142}
{"sequence": "TGCCCCCA", "PBM E-score": -0.308}
{"sequence": "ACAGCGAA", "PBM E-score": -0.00091}
{"sequence": "TGAGAGCA", "PBM E-score": 0.0225}
{"sequence": "ATCATTAA", "PBM E-score": 0.305}
{"sequence": "AAGTGTTG", "PBM E-score": 0.162}
{"sequence": "AACCAATA", "PBM E-score": 0.157}
{"sequence": "CCCCTCCG", "PBM E-score": -0.14}
{"sequence": "TACAGTCA", "PBM E-score": 0.0623}
{"sequence": "AACGAACC", "PBM E-score": 0.12}
{"sequence": "CGCTCTGA", "PBM E-score": -0.167}
{"sequence": "ACGAAGAC", "PBM E-score": -0.04}
{"sequence": "CCCCGGTC", "PBM E-score": 0.0652}
{"sequence": "CGTGGCTA", "PBM E-score": -0.0311}
{"sequence": "CATCAGCA", "PBM E-score": -0.0871}
{"sequence": "ACCGTTCG", "PBM E-score": -0.101}
{"sequence": "CATTGGGA", "PBM E-score": -0.184}
{"sequence": "AATCAATA", "PBM E-score": 0.193}
{"sequence": "GATCCATC", "PBM E-score": 0.113}
{"sequence": "CTTCGTCA", "PBM E-score": 0.00553}
{"sequence": "CGATACAC", "PBM E-score": 0.0385}
{"sequence": "TACGCCAA", "PBM E-score": -0.254}
{"sequence": "AAAGGGCG", "PBM E-score": -0.1}
{"sequence": "CCCGCCAC", "PBM E-score": -0.00219}
{"sequence": "CGCCGAGA", "PBM E-score": 0.0729}
{"sequence": "ATTTGAAC", "PBM E-score": 0.158}
{"sequence": "CCCGATTC", "PBM E-score": 0.0897}
{"sequence": "AACAAAGT", "PBM E-score": 0.262}
{"sequence": "ATAAATCC", "PBM E-score": 0.217}
{"sequence": "ACACTGAC", "PBM E-score": -0.0801}
{"sequence": "ACACGGGC", "PBM E-score": -0.114}
{"sequence": "CGTCAGCA", "PBM E-score": -0.145}
{"sequence": "AGTACTCC", "PBM E-score": 0.325}
{"sequence": "GATCTAAC", "PBM E-score": 0.119}
{"sequence": "AACAGTCT", "PBM E-score": -0.204}
{"sequence": "AATTTTCT", "PBM E-score": 0.122}
{"sequence": "AATATATG", "PBM E-score": 0.242}
{"sequence": "ACGGGTGC", "PBM E-score": -0.0663}
{"sequence": "GCTGCCTA", "PBM E-score": -0.09}
{"sequence": "AAATCTAC", "PBM E-score": 0.24}
{"sequence": "CGCCTTTA", "PBM E-score": 0.00935}
{"sequence": "CAATTATA", "PBM E-score": 0.164}
{"sequence": "GCTTGTGA", "PBM E-score": -0.189}
{"sequence": "CCAGTCTA", "PBM E-score": -0.171}
{"sequence": "CGGTAGTA", "PBM E-score": 0.0454}
{"sequence": "CGGCACGA", "PBM E-score": -0.0995}
{"sequence": "ACACCTAG", "PBM E-score": -0.0572}
{"sequence": "ACCTGTCA", "PBM E-score": 0.00542}
{"sequence": "CACCTATG", "PBM E-score": -0.171}
{"sequence": "CATGTTCC", "PBM E-score": -0.0382}
{"sequence": "CTGCTCTA", "PBM E-score": -0.104}
{"sequence": "ATAGATGG", "PBM E-score": -0.0418}
{"sequence": "GCGTGCTA", "PBM E-score": -0.251}
{"sequence": "AAAGCGGT", "PBM E-score": -0.0242}
{"sequence": "ATGTTCGC", "PBM E-score": -0.0708}
{"sequence": "CAAGAGGC", "PBM E-score": -0.191}
{"sequence": "ACTTAACG", "PBM E-score": 0.0577}
{"sequence": "CACGCTGC", "PBM E-score": -0.277}
{"sequence": "CCTTCGAC", "PBM E-score": -0.232}
{"sequence": "GATCTCTA", "PBM E-score": -0.094}
{"sequence": "AGGTCCAC", "PBM E-score": -0.265}
{"sequence": "ACAAGCGA", "PBM E-score": -0.00091}
{"sequence": "GAGCGGCC", "PBM E-score": -0.156}
{"sequence": "CCTGATAC", "PBM E-score": 0.0669}
{"sequence": "AAATCTGT", "PBM E-score": 0.097}
{"sequence": "CAGTGTTC", "PBM E-score": 0.0572}
{"sequence": "AGCCCAAG", "PBM E-score": -0.181}
{"sequence": "CCACTGCG", "PBM E-score": -0.0681}
{"sequence": "ATCTCGTC", "PBM E-score": -0.0264}
{"sequence": "AAAATAGT", "PBM E-score": 0.133}
